{"source": "the supplement of paper PMC4604168 (melanoma cell lines)", "note": "This is one part of the list. Most values come without repeats; read them as rough.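 Also: cells treated in 1,536-well plates, then fixed and DAPI-stained, with nuclei counted from automated high-throughput microscope images.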", "data": [{"tested_on": "COLO800", "experiment": "cell count relative to DMSO control; melanoma cells; higher = more viable cells", "conditions": "library dose: standard library concentration; 72 h", "units": {"cell count": "%"}, "values": [{"smiles": "O=C(O)c1ccc2c(c1)nc(Nc1cccc(Cl)c1)c1ccncc12", "note": "+ COc1cc(N2CCC(N3CCN(C)CC3)CC2)ccc1Nc1ncc(Cl)c(Nc2ccccc2S(=O)(=O)C(C)C)n1 [NVP-TAE684] (first compound 2 µM, partner dose 0.4 µM)", "cell count": 39.2}, {"smiles": "Cc1cc(N2CCOCC2)cc2[nH]c(-c3c(NC[C@@H](O)c4cccc(Cl)c4)cc[nH]c3=O)nc12", "note": "+ O=C1NC(=O)/C(=C/c2ccc(-c3ccc(F)cc3O)o2)S1 [AS252424] (first compound 1 µM, partner dose 5 µM)", "cell count": 41.6}, {"smiles": "O=C(O)[C@@H]1[O][Sb](=[O])([O][Sb]2(=[O])[O][C@H]([C@H](O)CO)[C@H](O)[C@H](C(=O)O)[O]2)[O][C@H]([C@H](O)CO)[C@@H]1O", "note": "(stereo not given in full) [stibogluconate] + COc1cc(N2CCC(N3CCN(C)CC3)CC2)ccc1Nc1ncc(Cl)c(Nc2ccccc2S(=O)(=O)C(C)C)n1 [NVP-TAE684] (first compound 10 µM, partner dose 0.4 µM)", "cell count": 45.6}, {"smiles": "O=C(O)c1ccc2c(c1)nc(Nc1cccc(Cl)c1)c1ccncc12", "note": "+ O=c1cc(-c2cccc3c2Sc2ccccc2S3)oc(N2CCOCC2)c1 [KU55933] (first compound 2 µM, partner dose 5 µM)", "cell count": 63.2}, {"smiles": "O=C(Nc1ccccc1)c1cc([N+](=O)[O-])ccc1Cl", "note": "+ COc1ccc(COc2ccc(Cc3cnc(N)nc3N)cc2OC)cc1 [GW2580] (first compound 10 µM, partner dose 5 µM)", "cell count": 27.2}, {"smiles": "O=C(O)[C@@H]1[O][Sb](=[O])([O][Sb]2(=[O])[O][C@H]([C@H](O)CO)[C@H](O)[C@H](C(=O)O)[O]2)[O][C@H]([C@H](O)CO)[C@@H]1O", "note": "(stereo not given in full) [stibogluconate] + O=c1cc(-c2cccc3c2Sc2ccccc2S3)oc(N2CCOCC2)c1 [KU55933] (first compound 10 µM, partner dose 5 µM)", "cell count": 93.8}, {"smiles": "O=C(O)c1ccc2c(c1)nc(Nc1cccc(Cl)c1)c1ccncc12", "note": "+ COc1ccc(-c2ccc3c(N4CCOCC4)nc(N4C[C@@H](C)O[C@@H](C)C4)nc3n2)cc1CO [KU0063794] (first compound 2 µM, partner dose 0.1 µM)", "cell count": 75}, {"smiles": "O=C(Nc1ccccc1)c1cc([N+](=O)[O-])ccc1Cl", "note": "+ CCN(CC)CCCCNc1ncc2cc(-c3cc(OC)cc(OC)c3)c(NC(=O)NC(C)(C)C)nc2n1 [PD173074] (first compound 10 µM, partner dose 0.5 µM)", "cell count": 85.8}, {"smiles": "Cn1nnc2c(C(N)=O)ncn2c1=O", "note": "[temozolomide] + COc1cc2ncnc(Nc3ccc(Oc4ccccc4)cc3)c2cc1OC [SrcI1] (first compound 10 µM, partner dose 10 µM)", "cell count": 96.4}, {"smiles": "O=C(Nc1ccccc1)c1cc([N+](=O)[O-])ccc1Cl", "note": "+ COC(=O)c1sccc1S(=O)(=O)Nc1ccc(Nc2ccccc2)cc1OC [GSK0660] (first compound 10 µM, partner dose 5 µM)", "cell count": 96.9}, {"smiles": "Cc1cc(N2CCOCC2)cc2[nH]c(-c3c(NC[C@@H](O)c4cccc(Cl)c4)cc[nH]c3=O)nc12", "note": "+ c1cc(-c2cnn3cc(-c4ccc(OCCN5CCCCC5)cc4)cnc23)ccn1 [Dorsomorphin] (first compound 1 µM, partner dose 2 µM)", "cell count": 35.2}, {"smiles": "Cc1cc(N2CCOCC2)cc2[nH]c(-c3c(NC[C@@H](O)c4cccc(Cl)c4)cc[nH]c3=O)nc12", "note": "+ COc1ccc(COc2ccc(Cc3cnc(N)nc3N)cc2OC)cc1 [GW2580] (first compound 1 µM, partner dose 5 µM)", "cell count": 54.9}, {"smiles": "Cn1nnc2c(C(N)=O)ncn2c1=O", "note": "[temozolomide] + O=C(Nc1ccccc1)c1cc([N+](=O)[O-])ccc1Cl [GW9662] (first compound 10 µM, partner dose 10 µM)", "cell count": 55.9}, {"smiles": "O=C(Nc1cc(C(F)(F)F)cc(C(F)(F)F)c1)c1cc(Cl)ccc1O", "note": "+ COc1ccc(-c2ccc3c(N4CCOCC4)nc(N4C[C@@H](C)O[C@@H](C)C4)nc3n2)cc1CO [KU0063794] (first compound 0.08 µM, partner dose 0.1 µM)", "cell count": 65.3}, {"smiles": "O=C(O)[C@@H]1[O][Sb](=[O])([O][Sb]2(=[O])[O][C@H]([C@H](O)CO)[C@H](O)[C@H](C(=O)O)[O]2)[O][C@H]([C@H](O)CO)[C@@H]1O", "note": "(stereo not given in full) [stibogluconate] + COc1ccc(-c2ccc3c(N4CCOCC4)nc(N4C[C@@H](C)O[C@@H](C)C4)nc3n2)cc1CO [KU0063794] (first compound 10 µM, partner dose 0.1 µM)", "cell count": 113}]}]}
